Data on 25 molecules can be found in PubChem BioAssay (NCI).

Values joined by “and” are separate entries in the source; they are usually repeats but may differ in a detail not shown here. Equal values may be shown once.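 Grown in 96-well plates, cells were treated for 48 hours with each compound at five concentrations. Insufficient inhibition: endpoint recorded as highest concentration tested. Here, GI50 denotes the concentration required for 50% inhibition of growth. Definition used: TGI = concentration required for complete inhibition of growth.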 Some results are limits rather than exact numbers.

The assay relates to NCI-H322M lung. Put plainly: NCI anticancer screen, dose series, 48 h.

The molecule `CC(=O)OC1[C@H]2c3cc4c(cc3CN3CCC(C[C@@H]1OC(C)=O)C23)OCO4` (some centres undefined) registered a TGI of over 75 µM.
The same measure, in the same setting: the value for `COc1ccc(/C=C2/C(=O)N(C(=O)c3ccc(Cl)cc3)N=C2C)cc1OC` was over 100 µM; that for `O=C(Nc1ccc(C(F)(F)F)cc1[N+](=O)[O-])C(=O)C(C(=O)c1ccc2ccccc2c1)C1OC(=O)c2ccccc21` (centres undefined) was 16.4 µM.
Take `COc1cc(N2CCC(N(C)C)CC2)ccc1Nc1ncc(Cl)c(Nc2ccccc2P(C)(C)=O)n1`: the GI50 was 0.782 µM and 0.412 µM; the TGI is > 28.2 µM and 3.8 µM.
Turning to `C=CCOc1cc2c(cc1C(C)c1ccc(OC)cc1)OCO2` (centres undefined), the TGI was over 100 µM.
The same measure, in the same setting: the result for `Cn1c(=O)nc2n(CCO)c(-c3ccccc3)c(-c3ccccc3)nc-2c1=O` reads over 100 µM; that for `CCn1c(=O)c2c(=O)[nH][nH]c2c2ccccc21`, over 100 µM; that for `CC1(C)OC2C(CO)OC(n3ccc(=O)[nH]c3=O)C2O1` (centres undefined), over 100 µM.
Take `CC(=O)Nc1ccc(-c2nnc(SCC(=O)Nc3ccccc3Cl)o2)cc1`: the TGI is over 100 µM.
For `Cc1c(C(=O)/C=C/c2ccc(O)cc2)nnn1-c1ccnc2c(C(F)(F)F)cccc12`, the GI50 was 8.01 µM and the TGI amounted to 89.3 µM.
Consider `COC(=O)c1c/c(=N\NC(=O)CC(=O)Nc2ccccc2Cl)c2ccccc2o1`, for which the TGI was over 100 µM.
`CC(=O)/C=C1/c2ccccc2N(C(C)=O)C1O` (centres undefined) gave a TGI of over 100 µM.
Same read-out and setting: the result for `CCOC(=O)CCc1c(C(=O)OCC)[nH]c(/C=C2/NC(=O)C(C)=C2CC)c1C` reads over 100 µM; that for `C[N+](C)(C)CC1Cc2ccccc2C1=O` (centres undefined), over 10 µM; that for `COc1ncnc2c(NC3OC(CO)C(O)C3O)ncnc12` (centres undefined), 0.824 µM.
Regarding `COc1cc2c(cc1OCCCCCOc1cc(-c3ccc(F)cc3)nc(C)n1)N=C[C@@H]1CCCN1C2=O`, the GI50 is over 53.6 µM and the TGI is over 88.1 µM.
For `COc1nccc(-c2c(-c3ccc(F)cc3)ncn2C2CCC(O)CC2)n1` (centres undefined), in that order: 33.7 µM and over 100 µM.
Taken in the same sequence, the figures for `CCOC(=O)c1sc(=S)c2c(C(=O)c3ccccc3)c(C(=O)c3ccccc3)sc2c1C(=O)OCC` were 5.18 µM and 77.3 µM.
In the case of `O=C(Cc1ccccc1)N/N=C(/CCN1CCCC1)CC(c1ccccc1)c1c(O)c2ccccc2oc1=O` (centres undefined), the TGI was over 100 µM.
As for `Cc1sc2ncnc(Sc3nc4ccccc4[nH]3)c2c1C`, the GI50 was 23.1 µM and the TGI was over 100 µM.
For `COc1ccc2c(c1)[nH]c(=O)c1c3cccnc3cn21`, the GI50 was 1.24 µM and the TGI was 49.7 µM.
Take `Cn1cnc2c(F)c(Nc3ccc(Br)cc3Cl)c(C(=O)NOCCO)cc21`: the GI50 was 2.12 µM and 3.61 µM; the TGI is over 100 µM.
In the case of `O=S(=O)(CC1=NC2C=CC=CC2N=C1)NCc1ccccc1` (centres undefined), the TGI was over 100 µM.
Regarding `COc1ccc(C2CC(=O)Nc3c2c(C)nn3-c2nc3ccccc3[nH]2)cc1` (centres undefined), the GI50 is 3.93 µM and the TGI is over 77.1 µM.
In the case of `CSC(=S)N(C)c1nc(=[N+](C)C)ss1`, the TGI was over 100 µM.
